Laboratory results from paper PMC4564936.

Target: T1, Escherichia coli IscU (E. coli), P0ACD4
T1 chain: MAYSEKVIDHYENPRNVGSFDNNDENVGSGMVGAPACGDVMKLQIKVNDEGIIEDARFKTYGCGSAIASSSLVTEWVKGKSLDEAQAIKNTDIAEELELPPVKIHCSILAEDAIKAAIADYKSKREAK
Experiment: SAXS; purified protein dialysed extensively (>12 h), buffer conditions as used for the NMR studies with DTT as reductant; variable temperature; molecular mass by the Vc method; monomer to dimer
Conditions: remark: other sources report otherwise

stoichiometry N: 2
B1: Escherichia coli IscU, P0ACD4 1-128 (natural protein)
chain: T1 chain
